Reference: PubChem BioAssay AID1030 (National Center for Advancing Translational Sciences (NCATS), 2008)
Several values for one entry are separate records, joined by “and”; a condition that tells them apart may be missing. Equal entries are not always repeated. Screen size: about 220,000 compounds; about 16,000 (7.3%) were called active. The inconclusive results got no clear call from the source; some entries with a clear call stand among them for comparison. The call rests on the fitted dose curve; in most records, active means well fitted inhibition curve with a large enough effect (not every such curve was filed as active); inconclusive means small, poorly fitted or top-dose-only effect, or another doubt; inactive means no such curve, though single readings can be large or run the other way. Potencies beside an inconclusive call are fits to weak or partial responses and may not hold up.

target: Aldehyde dehydrogenase 1A1 (Homo sapiens) (UniProt P00352); test: qHTS Assay for Inhibitors of Aldehyde Dehydrogenase 1 (ALDH1A1); conditions: Purified ALDH1A1, NADH fluorescence, propionaldehyde substrate; series mostly up to 75.3 µM; activity, negative = inhibition: at the top concentration;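 on activity, negative = inhibition: plate controls were no enzyme wells and a reference inhibitor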
UniProt P00352, sequence (P00352 whole entry, looked up): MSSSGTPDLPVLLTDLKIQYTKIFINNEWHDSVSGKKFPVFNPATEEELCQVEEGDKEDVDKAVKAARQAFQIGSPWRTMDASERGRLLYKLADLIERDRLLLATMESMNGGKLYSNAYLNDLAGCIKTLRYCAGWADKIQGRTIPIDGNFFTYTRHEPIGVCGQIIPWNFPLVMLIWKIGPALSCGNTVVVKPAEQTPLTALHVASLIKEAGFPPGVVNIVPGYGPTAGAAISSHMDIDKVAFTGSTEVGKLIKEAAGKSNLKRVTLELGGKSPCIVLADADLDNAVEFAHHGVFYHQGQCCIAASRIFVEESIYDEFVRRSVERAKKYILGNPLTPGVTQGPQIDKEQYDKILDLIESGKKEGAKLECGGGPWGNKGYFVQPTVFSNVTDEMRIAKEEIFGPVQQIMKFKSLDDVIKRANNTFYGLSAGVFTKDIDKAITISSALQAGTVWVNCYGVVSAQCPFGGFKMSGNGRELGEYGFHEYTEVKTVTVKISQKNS
Potency means the concentration at half of the fitted maximal effect; tags describe the fitted curve by direction and shape.

activity, negative = inhibition, inactive:
COc1ccc(OC)c(NC(=O)CC2SC(=N)N(c3ccccc3)C2=O)c1 (centres undefined) -11.5%
CC(C)CNC(=O)COc1cccc(C(=O)NCc2ccccc2)c1 -0.328%
CCn1nc(C)c(C2C(C#N)=C(N)OC3=C2C(=O)CC(C)(C)C3)c1C (centres undefined) 2.04%
COc1ccc(C2(CNC(=O)Cc3ccc(OC)c(OC)c3)CCOCC2)cc1 -1.57%
O=C(COC(=O)CCC(=O)c1ccc(Cl)cc1)NC1CC1 0.101%
CCOC(=O)Cc1cc(=O)[nH]c(Nc2nc3ccccc3o2)n1 1.2%
CC(C)C(=O)c1cn(CC(=O)NCc2ccco2)c2ccccc12 0.43%
Cc1ccccc1N(CC(=O)O)S(C)(=O)=O 5.02%
COc1cc2c(cc1NC(=O)C(C)NCc1ccccc1)oc1ccccc12 (centres undefined) -7.37%
O=C1CCCCC(=O)N(c2ccccc2)c2ccccc21 5.57%
CC(=O)N1CCN(CC(=O)Nc2ccc3c(c2)CCC3)CC1 5.89%
Cc1ccc(CN2CCN(Cc3ccc(OC(C)C)cc3)CC2CCO)o1 (centres undefined) 1.6%
COc1ccc(NC(=O)CN(C)C2CCCCC2)cc1Cl 2.4%
CCN(C(=O)CN1CCN(c2ccc(OC)cc2)CC1)c1c(N)n(Cc2ccccc2)c(=O)[nH]c1=O 5.03%

Potency, active:
CC(C)N(Cc1ccccc1)C(=O)COC(=O)/C=C/c1cnc2ccccc2n1 15.8 µM
CCOc1cccc(/C(O)=C2/C(=O)C(=O)N(CCOC)C2c2ccco2)c1 (centres undefined) 25.1 µM
COC(=O)c1ccccc1NC(=S)NC(=O)c1cccc2ccccc12 10 µM
O=C1N=c2ccccc2=C1c1c(O)n(-c2cccc(F)c2)[nH]c1=O 25.1 µM
CN(CCC1CCOCC1)Cc1cn[nH]c1-c1ccc(-c2ccccc2)cc1 10 µM
CC1(C)CC(=O)C(C=NCCN2CCN(C3CC(=O)N(c4ccc(Br)cc4)C3=O)CC2)=C(O)C1 (centres undefined) 28.2 µM
CC(C)C(=O)N1CCN(c2ccc([N+](=O)[O-])cc2Cl)CC1 14.1 µM
CN(C)c1ccc(/C=C/C(=O)c2cccc(Br)c2)cc1 7.08 µM
CN(C)c1ccc(/C=C/C(=O)c2ccc(O)cc2)cc1[N+](=O)[O-] 17.8 µM
O=c1cc(Nc2ccc3c(c2)OCCO3)[nH]c(=O)n1C1CCCCC1 1 µM
Cc1cc(C)c(C#N)c(SCC(=O)OC2CCCCC2)n1 28.2 µM
O=C1CC(c2ccccc2F)C2=C(COC2=O)N1 (centres undefined) 17.8 µM
COc1cccc(C(=O)Nc2cc(C)ccc2NC(=O)COc2ccccc2)c1 14.1 µM
CC/C(=N\NC(=O)c1ccc(N(C)C)cc1)c1ccccc1 28.2 µM
C=CCn1c(SCC(=O)N2CCc3ccccc3C2)nc2ccccc2c1=O 12.6 µM
CCc1ccccc1NC(=O)CSC1=C(C#N)C(c2ccc3c(c2)OCO3)C2=C(CCCC2=O)N1 (centres undefined) 25.1 µM
O=C(c1ccccc1)N1CCN(c2ncnc3sc4c(c23)CCC4)CC1 1.26 µM
CC1CCCN(c2nc(NCc3ccco3)nc(N)c2[N+](=O)[O-])C1 (centres undefined) 2 µM
CCCC(=O)NC(=S)Nc1ccc(Cl)cn1 25.1 µM

Potency, inconclusive:
CNC(=O)c1ccsc1NC(=O)c1ccc(S(=O)(=O)N2CCc3ccccc32)cc1 39.8 µM [inhibitor, single point]
Nc1cc([N+](=O)[O-])ccc1C(=O)O 22.4 µM [inhibitor, partial curve]
CCOc1ccc(C(=O)Nc2ccc(N3CCCC3)cc2)cc1 20 µM [inhibitor, partial curve]
Cn1c(C(=O)NCCCN2CCN(c3ccccc3F)CC2)cc2c(=O)n(C)c3ccccc3c21 39.8 µM [inhibitor, single point]
COc1cc(OC)c(OC)cc1CN(C)CCc1ccccn1 39.8 µM [inhibitor, single point]
Cc1ccc(CSCC(Nc2ccc(C(=O)O)cc2[N+](=O)[O-])C(=O)O)cc1 (centres undefined) 11.2 µM [inhibitor, partial curve]
CCOc1ccc2nc(N3CCC(C(=O)N4CCN(c5ccccn5)CC4)CC3)sc2c1 39.8 µM [inhibitor, single point]
Cn1cccc1Cc1nnc(SCC(=O)Nc2ccc(F)cc2F)n1-c1ccc(F)cc1 25.1 µM [inhibitor, partial curve]
O=C(N/N=C/c1coc2ccccc2c1=O)c1cc(O)cc(O)c1 25.1 µM [inhibitor, single point]
CC(C)CCNC(=O)NC(=O)CSc1nnc(-c2ccccc2F)n1N 39.8 µM [inhibitor, single point]
COC(=O)CC1C(C)(C)C(OC(C)=O)C2CC3C4CC(=O)OC(c5ccoc5)[C@]4(C)CCC3[C@@]1(C)C2=O (some centres undefined) 22.4 µM [inhibitor, partial curve]
COc1ccccc1/C=C/C(=O)NC(=S)NCC1CCCO1 (centres undefined) 31.6 µM [inhibitor, partial curve]
CCOc1ccc(C(C(=O)NC2CCCC2)N(CCCO)C(=O)c2ccc(-c3ccccc3)[nH]2)cc1 (centres undefined) 35.5 µM [inhibitor, single point]
COc1coc(C(O)C[N+](=O)[O-])cc1=O (centres undefined) 39.8 µM [inhibitor, single point]
O=C(O)CCCN=Cc1c(O)c2ccccc2oc1=O 7.94 µM [inhibitor, partial curve]
CC1CCCN(C(C(=O)Nc2ccc3c(c2)OCO3)c2ccccc2)C1 (centres undefined) 28.2 µM [inhibitor, partial curve]
COc1ccccc1C(c1nnnn1C(C)(C)C)N1CCCCCC1 (centres undefined) 37.7 µM [inhibitor, single point]
Cc1ccccc1-c1cc(N(C)C)ncn1 44.7 µM [inhibitor, single point]
COc1ccc(C(=O)Nc2ccc(Cl)cc2C(=O)NCc2ccco2)cc1OC 39.8 µM [inhibitor, single point]
CC(C)N1C(=O)C(O)(C2COC(C)(C)CC2=O)c2ccccc21 (centres undefined) 15.8 µM [inhibitor, partial curve]
CCC(Nc1nc(-c2ccccc2)nc2ccccc12)C(=O)O (centres undefined) 39.8 µM [inhibitor, single point]
COc1ccc(N/C=C\C(=O)c2ccc3c(c2)OCO3)cc1 2.99 µM [inhibitor, partial curve]
CCOC(=O)c1cc(-c2ccccc2)sc1NC(=O)C(C)OC(=O)c1ccncc1 (centres undefined) 5.62 µM [inhibitor, single point]
O=C(COC(=O)c1ccc(F)cc1F)Nc1ccc2[nH]c(=O)[nH]c2c1 28.2 µM [inhibitor, single point]
O=C(CCN1C(=O)c2ccccc2C1=O)Nc1ccncc1 20 µM [inhibitor, partial curve]
Cc1cc(C)nc(-n2nc(C)cc2Nc2ccccc2)n1 14.1 µM [inhibitor, partial curve]
Nc1ccc(-c2nc3ccc(-c4nc5ccc(N)cc5[nH]4)cc3[nH]2)cc1 14.1 µM [inhibitor, partial curve] and 22.4 µM [inhibitor, partial curve]
C=CCc1cccc2cc(C(=O)N(C)C)c(=O)oc12 22.4 µM [inhibitor, partial curve]
O=C(COC(=O)[C@H](Cc1ccccc1)NC(=O)c1ccco1)NCc1ccccc1 39.8 µM [inhibitor, single point]
O=C(NCc1ccco1)C(=O)NCC1OCCCN1S(=O)(=O)c1ccc(Cl)cc1 (centres undefined) 28.2 µM [inhibitor, partial curve]
CCOc1ccc2nc(-c3ccccc3)[nH]c2c1 28.2 µM [inhibitor, partial curve]
CC(C)OC(=O)c1ccc(Cn2nnc3ccccc3c2=O)cc1 28.2 µM [inhibitor, single point]
COc1cccc(/C(C)=N/NC(=O)c2ccc(N(C)C)cc2)c1 44.7 µM [inhibitor, single point]
COc1ccc(S(=O)(=O)N2CCOCC2)c(C)c1C 20 µM [inhibitor, partial curve]
c1ccc(Cn2nc(-c3ccccc3)nc2-c2ccccc2)cc1 25.1 µM [inhibitor, single point]
Cc1ccc(NC(=S)N(CCCN2CCOCC2)Cc2ccco2)cc1C 22.4 µM [inhibitor, partial curve]
O=C1OC2(CCCCC2)OC(=O)C1=CNc1nccs1 39.8 µM [inhibitor, single point]
O=C(CC(Nc1cccc(Cl)c1Cl)C(=O)OCC(=O)c1cccs1)c1ccccc1 (centres undefined) 31.6 µM [inhibitor, single point]
CC(=O)Nc1cccc(OCC(=O)/C=C2\N(C)c3ccccc3C2(C)C)c1 37.7 µM [inhibitor, single point]
CCN(CC)C(=O)c1sc2nc(N3CCOCC3)c3c(c2c1N)CCCC3 25.1 µM [inhibitor, partial curve]
CCc1ccc2oc(=O)cc(CN3CCN(CCO)CC3)c2c1 39.8 µM [inhibitor, single point]
